{
  "source": "the BET-seq Pho4 binding data (Le et al. 2018)",
  "note": "Some of the results follow. These are noisy estimates, calculated here from bound and input reads.",
  "data": [
    {"target": "T1, Pho4 (S. cerevisiae) (UniProt P07270)", "T1 sequence": "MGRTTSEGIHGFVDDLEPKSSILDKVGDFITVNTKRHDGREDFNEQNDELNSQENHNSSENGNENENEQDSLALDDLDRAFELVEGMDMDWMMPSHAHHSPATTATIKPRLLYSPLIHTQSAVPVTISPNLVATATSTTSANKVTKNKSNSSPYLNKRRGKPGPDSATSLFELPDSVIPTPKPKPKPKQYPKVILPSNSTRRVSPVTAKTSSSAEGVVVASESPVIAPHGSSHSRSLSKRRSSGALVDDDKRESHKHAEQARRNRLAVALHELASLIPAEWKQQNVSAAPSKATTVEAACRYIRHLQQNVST", "test": "relative binding free energy (BET-seq); higher = weaker binding", "details": "reference: library average", "units": {"relative binding free energy": "kcal/mol"}, "values": [
      {"sequence": "CTGGCCACGTGAGTGG", "relative binding free energy": 0.23},
      {"sequence": "ATAGGCACGTGGGTAA", "relative binding free energy": -0.22},
      {"sequence": "TTGGTCACGTGACATG", "relative binding free energy": 0.08},
      {"sequence": "TCAGGCACGTGGGTAC", "relative binding free energy": -0.15},
      {"sequence": "AGTTTCACGTGGTGGG", "relative binding free energy": 0.32},
      {"sequence": "TGTCGCACGTGGCGGC", "relative binding free energy": -0.11},
      {"sequence": "GGGGCCACGTGTCTGT", "relative binding free energy": -0.05},
      {"sequence": "AGGCGCACGTGTCGGC", "relative binding free energy": 0.09},
      {"sequence": "TGGGTCACGTGTGTGG", "relative binding free energy": 0.14},
      {"sequence": "CATTTCACGTGGTATG", "relative binding free energy": 0.18},
      {"sequence": "TAGAACACGTGTGTGC", "relative binding free energy": 0.04},
      {"sequence": "TTAATCACGTGAGGTA", "relative binding free energy": 0.23},
      {"sequence": "GGTTGCACGTGAAGTA", "relative binding free energy": 0.34},
      {"sequence": "CTTTGCACGTGTGGTA", "relative binding free energy": -0.03},
      {"sequence": "GTGATCACGTGCTGTG", "relative binding free energy": 0.13},
      {"sequence": "TACGACACGTGGAGGG", "relative binding free energy": 0},
      {"sequence": "TTGGACACGTGCTGAG", "relative binding free energy": -0.02},
      {"sequence": "GTTCACACGTGGGTGG", "relative binding free energy": -0.07},
      {"sequence": "TCGGTCACGTGTCGTC", "relative binding free energy": 0.39},
      {"sequence": "GGGAGCACGTGGCGCT", "relative binding free energy": -0.16},
      {"sequence": "TTGATCACGTGTATAT", "relative binding free energy": 0.13},
      {"sequence": "GGATGCACGTGCATAG", "relative binding free energy": 0.09},
      {"sequence": "GTGTACACGTGTGAGC", "relative binding free energy": 0.16},
      {"sequence": "AATGTCACGTGGATGC", "relative binding free energy": 0.13},
      {"sequence": "CTGGGCACGTGGGAGA", "relative binding free energy": -0.19},
      {"sequence": "GTATCCACGTGTGTGT", "relative binding free energy": 0.06},
      {"sequence": "TGGTTCACGTGTACTA", "relative binding free energy": 0.18},
      {"sequence": "CCGGTCACGTGTAGGT", "relative binding free energy": 0.04},
      {"sequence": "ATAATCACGTGGAGAT", "relative binding free energy": 0.06},
      {"sequence": "TTCAGCACGTGGTCAT", "relative binding free energy": -0.1},
      {"sequence": "TTTAACACGTGATTAG", "relative binding free energy": 0.17},
      {"sequence": "GCAGGCACGTGTTGGT", "relative binding free energy": 0.05},
      {"sequence": "GGTTTCACGTGTGAAC", "relative binding free energy": 0.29},
      {"sequence": "TTGGACACGTGTCTGA", "relative binding free energy": 0.04},
      {"sequence": "AGGGACACGTGATGCG", "relative binding free energy": 0.12},
      {"sequence": "GGGGGCACGTGGTTCC", "relative binding free energy": -0.13},
      {"sequence": "TCGATCACGTGGGTAG", "relative binding free energy": -0.03},
      {"sequence": "AAGTTCACGTGATGGT", "relative binding free energy": 0.35},
      {"sequence": "TGGTACACGTGCGAGT", "relative binding free energy": -0.04},
      {"sequence": "AGTTGCACGTGTATCT", "relative binding free energy": -0.02},
      {"sequence": "GTGGACACGTGTTAGG", "relative binding free energy": 0.09},
      {"sequence": "CTGTACACGTGTGTGC", "relative binding free energy": 0.13},
      {"sequence": "GGGAGCACGTGTAAGA", "relative binding free energy": 0},
      {"sequence": "CTCGGCACGTGGAGTT", "relative binding free energy": 0},
      {"sequence": "TGTGACACGTGTGACA", "relative binding free energy": 0.1},
      {"sequence": "ATTAACACGTGTATGA", "relative binding free energy": -0.02},
      {"sequence": "TGAGTCACGTGGCTTT", "relative binding free energy": 0.07},
      {"sequence": "ATGTACACGTGGTTAG", "relative binding free energy": 0.01},
      {"sequence": "GTGTGCACGTGTAGGT", "relative binding free energy": -0.02},
      {"sequence": "GTGGCCACGTGTAGGT", "relative binding free energy": 0.05},
      {"sequence": "TTCTGCACGTGTGTTA", "relative binding free energy": 0.07},
      {"sequence": "GGAATCACGTGGCGGT", "relative binding free energy": 0.01},
      {"sequence": "CTCTTCACGTGTTGGT", "relative binding free energy": 0.1},
      {"sequence": "GCGTACACGTGTGGTT", "relative binding free energy": 0.16},
      {"sequence": "ACGTGCACGTGGGGGG", "relative binding free energy": -0.11},
      {"sequence": "GTATTCACGTGGATTC", "relative binding free energy": 0.37},
      {"sequence": "GGAGGCACGTGTAACG", "relative binding free energy": -0.03},
      {"sequence": "GTCGGCACGTGGGACG", "relative binding free energy": -0.12},
      {"sequence": "TGGGGCACGTGATGTT", "relative binding free energy": 0.12},
      {"sequence": "GGTGGCACGTGCTAAT", "relative binding free energy": -0.04},
      {"sequence": "TTGTGCACGTGTGCAT", "relative binding free energy": -0.05},
      {"sequence": "GGCTACACGTGTTAGT", "relative binding free energy": 0.22},
      {"sequence": "AGTGCCACGTGAGTTT", "relative binding free energy": 0.16},
      {"sequence": "TCATGCACGTGGTTCG", "relative binding free energy": -0.03},
      {"sequence": "GTAGGCACGTGTAGGG", "relative binding free energy": -0.03},
      {"sequence": "TATTACACGTGGCGTG", "relative binding free energy": -0.11},
      {"sequence": "ACGGGCACGTGGCGGG", "relative binding free energy": -0.28},
      {"sequence": "GAGGGCACGTGGTTAA", "relative binding free energy": -0.02},
      {"sequence": "GTGCACACGTGAGGGG", "relative binding free energy": 0.23},
      {"sequence": "TAAAGCACGTGGGGTG", "relative binding free energy": -0.22},
      {"sequence": "TTGGTCACGTGGGGGC", "relative binding free energy": 0.05},
      {"sequence": "CTGGACACGTGTGAGT", "relative binding free energy": 0.15},
      {"sequence": "TTGTGCACGTGGCGTT", "relative binding free energy": -0.08},
      {"sequence": "AATGGCACGTGTTTGG", "relative binding free energy": -0.06},
      {"sequence": "TGGGTCACGTGATTGC", "relative binding free energy": 0.23},
      {"sequence": "GATTGCACGTGGTTTA", "relative binding free energy": -0.01},
      {"sequence": "CTGGTCACGTGAGAGA", "relative binding free energy": 0.34},
      {"sequence": "GTGGCCACGTGTTTTA", "relative binding free energy": 0.06},
      {"sequence": "TTATTCACGTGGTGAC", "relative binding free energy": 0.21},
      {"sequence": "ACCGTCACGTGTGGTG", "relative binding free energy": 0.09},
      {"sequence": "TGAGGCACGTGGATGA", "relative binding free energy": -0.11},
      {"sequence": "GTGGCCACGTGGCGTG", "relative binding free energy": -0.19},
      {"sequence": "ATTAGCACGTGGCAGG", "relative binding free energy": -0.05},
      {"sequence": "GTAGACACGTGGGCGT", "relative binding free energy": -0.14},
      {"sequence": "GAGGTCACGTGCCGGT", "relative binding free energy": 0.15},
      {"sequence": "TGATGCACGTGTCGTG", "relative binding free energy": -0.02},
      {"sequence": "GGGCCCACGTGAGAGG", "relative binding free energy": 0.25},
      {"sequence": "CGTTGCACGTGATGCG", "relative binding free energy": -0.01},
      {"sequence": "ATCTGCACGTGTTGGC", "relative binding free energy": -0.01},
      {"sequence": "GATTACACGTGAGGTA", "relative binding free energy": 0.31},
      {"sequence": "ATTGCCACGTGCAGTG", "relative binding free energy": -0.13},
      {"sequence": "AAGGCCACGTGGTCGT", "relative binding free energy": -0.16},
      {"sequence": "AGCGGCACGTGGTGGT", "relative binding free energy": -0.2},
      {"sequence": "GAATACACGTGTTGTT", "relative binding free energy": -0.03},
      {"sequence": "CGGGACACGTGAGATT", "relative binding free energy": 0.5},
      {"sequence": "TCAAACACGTGGGATT", "relative binding free energy": 0.11},
      {"sequence": "TTAGTCACGTGAAGTG", "relative binding free energy": 0.3},
      {"sequence": "TTGGACACGTGTGCGC", "relative binding free energy": 0.04},
      {"sequence": "AGGTTCACGTGATGCG", "relative binding free energy": 0.15},
      {"sequence": "AATTGCACGTGTAGAG", "relative binding free energy": -0.11},
      {"sequence": "CTATTCACGTGTTGCT", "relative binding free energy": 0.23},
      {"sequence": "AATGTCACGTGAGTCT", "relative binding free energy": 0.37},
      {"sequence": "TCAAGCACGTGAGGTT", "relative binding free energy": 0.05},
      {"sequence": "TGGAACACGTGTAGGC", "relative binding free energy": 0.01},
      {"sequence": "CGTAGCACGTGATTGA", "relative binding free energy": 0.18},
      {"sequence": "TTGAGCACGTGCGTGG", "relative binding free energy": -0.08},
      {"sequence": "TAGGGCACGTGCGCCG", "relative binding free energy": -0.14},
      {"sequence": "AAAGACACGTGTCGGG", "relative binding free energy": 0.04},
      {"sequence": "TGACTCACGTGTGGGA", "relative binding free energy": 0.15},
      {"sequence": "GAATGCACGTGCTGTG", "relative binding free energy": -0.09},
      {"sequence": "CATGGCACGTGTTATT", "relative binding free energy": -0.05},
      {"sequence": "GGCTGCACGTGTAGAG", "relative binding free energy": 0.24},
      {"sequence": "CGGATCACGTGGTGGC", "relative binding free energy": 0.12},
      {"sequence": "GATGACACGTGGTATT", "relative binding free energy": -0.07},
      {"sequence": "TCGGGCACGTGGGTTG", "relative binding free energy": -0.23}
    ]}
  ]
}
